This is an account of results in PMC12136788.

T1: UNK ZnF1-3 (human, UniProt Q9C0B0 31-174)
T1 sequence: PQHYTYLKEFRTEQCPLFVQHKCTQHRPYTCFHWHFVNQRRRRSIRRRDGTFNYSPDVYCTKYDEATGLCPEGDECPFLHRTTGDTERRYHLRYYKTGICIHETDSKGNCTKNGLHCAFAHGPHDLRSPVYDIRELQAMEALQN

B1: chr7:141450121:141450122:+_ENSG00000106028_ENST00000265304|hu_mus|hu_hu_hu_mus_True|88_88 (ssRNA)
RNA: GGGAGUUCUACAGUCCGACGAUCUCAUCCGUUCUAUGCCUUUUCUUUCGUCUGGUCACUCAGAAAUAUAAUGUUAUCAGCUAUGAUUGUUGUUGCUUGCCGCCUCACAUUGUUUUUAUCCAUGUACUCGCCAUAGUCCACUUUCAACAGAGGAUUGAGCAUCA
B2: chr13:48664549:48664550:-_ENSG00000136146_ENST00000378586|hu_mus|motif|central (ssRNA)
RNA: GGGAGUUCUACAGUCCGACGAUCCUGGUUUUCCUCUUCCAGCUGUAAUAGCUUCUGAUUUCUUGAAAUUGCAAGCAUUUCGGUGAGUUCCCUCGACAAGACCUCCAGAUCUUCCAGCGCAGACAGAAGCCGCUCUCGCGUACUCAACAGAGGAUUGAGCAUCA
B3: chr1:39494564:39494565:+_ENSG00000168653_ENST00000372967|hu_hu|hu_hu_hu_mus_True|68_78 (ssRNA)
RNA: GGGAGUUCUACAGUCCGACGAUCAUGCAUUCGCCUCAUCGUUUUGUACCGAAGCAAACACUCUACGAAAUCAUCAUACUCUAUCUUGCACUCCUUUUUCGCCCGGGUCCCACCGAUCCCGUGUGCACACUCUAUCCACUCUUUCAACAGAGGAUUGAGCAUCA
B4: chr8:117866615:117866616:-_ENSG00000164754_ENST00000297338|hu_mus|motif|central (ssRNA)
RNA: GGGAGUUCUACAGUCCGACGAUCAAGCUUCUUGGUUGGCGGAGCCAGGUCCAGAGUCGUAACAAUAUCAGAAUAAUCGCGGAGCUGGGCUCUAAUGGUCUUACUAUCCAAUUCUUUGACACUGUCAACAAUCAGCUUCCUCUUCAACAGAGGAUUGAGCAUCA
B5: chr12:39756943:39756944:-_ENSG00000139116_ENST00000544797|hu_mus|hu_hu_hu_mus_False|8_108 (ssRNA)
RNA: GGGAGUUCUACAGUCCGACGAUCGGUUUGGCUAUUACCCCCAAGGGAAUCCUGCAAGAGUCUUGUCAGCUUAGAGUCUCUGUAAGGGACAUGGGUGGCUCUCUUGCUCUUGUCCCCCAAGGCGCUGAUUACAUUGCCAAGAGCCAACAGAGGAUUGAGCAUCA
B6: chr15:103023306:103023307:-_ENSMUSG00000009575_ENSMUST00000118152|mus_mus|motif|central (ssRNA)
RNA: GGGAGUUCUACAGUCCGACGAUCAGAAACUCACCAAGGUCACUAAGUACUUCCAAACUUGGAAGUAGCUCAGUGAGGGCGGAAAAAACUUCGACUGAAGGUAUCCUCCACAGGCAAUCCUAAAGGAGUUGAUCAGCUCUGAUCCAACAGAGGAUUGAGCAUCA

This is one part of the list.

For the experiment, the target named is T1, UNK ZnF1-3. In words: nsRBNS (natural sequence RNA bind-n-seq); RBNS binding buffer (assumed for nsRBNS): 25 mM Tris pH 7.5, 150 mM KCl, 3 mM MgCl2, 0.01% Triton X-100, 500 ug/ml BSA, 20 U/ml SUPERase-In, 4 C; UNK is unkempt and MSI1 is Musashi-1; names of the RNAs are library labels; protein concentration not given here; high values mean tight binding.
Consider B1, for which the binding signal was 0.413 enrichment R.

Regarding B2, the binding signal is 0.759 enrichment R.

In the case of B3, the binding signal is 0.667 enrichment R.

Regarding B4, the binding signal was 0.869 enrichment R.

B5: the binding signal amounted to 0.65 enrichment R.

As to B6, the binding signal was found to be 1.04 enrichment R.
